Data published in US20170267750A1, “Method of Treating Ovarian and Renal Cancer Using Antibodies Against T Cell Immunoglobulin Domain and Mucin Domain 1 (TIM-1) Antigen” (Celldex Therapeutics, Inc., priority 2005, published 2017).

Experiments:
[1] = molecular target: T1, TIM-1 antigen expressed on ACHN cells (Homo sapiens, UniProt Q96D42); experiment: FACS analysis of antibody reactivity with membrane bound TIM-1 on ACHN renal cancer cells; assay type: binding
T1 construct: endogenous in cells; host or cells: ACHN (ATCC CRL-1611); CAKI-2 (ATCC HTB-47)
T1 sequence (Q96D42 21-364): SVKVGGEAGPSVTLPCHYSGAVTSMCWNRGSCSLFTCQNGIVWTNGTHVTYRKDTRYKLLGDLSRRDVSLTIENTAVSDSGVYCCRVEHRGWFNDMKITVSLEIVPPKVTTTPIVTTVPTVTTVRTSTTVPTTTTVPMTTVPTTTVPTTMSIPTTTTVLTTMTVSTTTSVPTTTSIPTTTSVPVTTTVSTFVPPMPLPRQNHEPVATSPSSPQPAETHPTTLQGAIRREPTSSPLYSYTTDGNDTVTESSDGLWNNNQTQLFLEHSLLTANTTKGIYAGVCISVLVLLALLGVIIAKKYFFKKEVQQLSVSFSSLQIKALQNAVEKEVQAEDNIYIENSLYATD

[2] = molecular target: T2, TIM-1 antigen expressed on CAKI-2 cells (Homo sapiens, UniProt Q96D42); experiment: FACS analysis of antibody reactivity with membrane bound TIM-1 on CAKI-2 renal cancer cells; assay type: binding
T2 construct: endogenous in cells; host or cells: ACHN (ATCC CRL-1611); CAKI-2 (ATCC HTB-47)
T2 sequence (Q96D42 21-364): T1 sequence (Q96D42 21-364)

BT549 cells [3] = experiment: FACS analysis on antigen negative BT549 breast cancer cells (control); assay type: binding, human
BT549 cells [4] = experiment: Antibody mediated toxin killing clonogenic assay (saporin conjugated secondary antibody), BT549; assay type: cell-based; conditions: 100 ng/mL primary mAb plus goat anti-human IgG-saporin secondary; antigen negative cells
Protocol: A clonogenic assay as described in the art was used to determine whether primary antibodies can induce cancer cell death when used in combination with a saporin toxin conjugated secondary antibody reagent. Kohls and Lappi, Biotechniques, 28(1):162-5 (2000).
ACHN and BT549 cells were plated onto flat bottom tissue culture plates at a density of 3000 cells per well. On day 2 or when cells reached ˜25% confluency, 100 ng/well secondary mAb-toxin (goat anti-human IgG-saporin; Advanced Targeting Systems; HUM-ZAP; cat. no. IT-22) was added. A positive control anti-EGFR antibody, mAb 2.7.2, mAb 2.59.2, or an isotype control mAb was then added to each well at the desired concentration (typically 1 to 500 ng/mL). On day 5, the cells were trypsinized, transferred to a 150 mm tissue culture dish, and incubated at 37° C. Plates were examined daily. On days 10-12, all plates were Giemsa stained and colonies on the plates were counted. Plating efficiency was determined by comparing the number of cells prior to transfer to 150 mm plates to the number of colonies that eventually formed.
The percent viability in antigen positive ACHN and antigen negative BT549 cell lines are presented in FIG. 4 and FIG. 5 respectively.

BT549 cells [5] = experiment: Antibody toxin conjugate (Auristatin E) mediated killing clonogenic assay, BT549; assay type: cell-based, human; conditions: 1 to 1000 ng/ml, antigen negative cells
[6] = molecular target: T3, TIM-1 protein on human CD4+ Th2 cells (Homo sapiens, UniProt Q96D42); experiment: FACS analysis of expression of TIM-1 protein on human CD4+ Th2 cells; assay type: binding; conditions: Polarized Human CD4+ Th2 Cells
T3 construct: a major fraction of polarized human Th2 and Th1 cells do express TIM-1; endogenous in cells; host or cells: primary human CD4+ T cells from blood
T3 sequence (Q96D42 21-364): T1 sequence (Q96D42 21-364)

[7] = molecular target: T4, TIM-1 on activated T cells (Homo sapiens, UniProt Q96D42); experiment: FACS: percent of activated T cells that express TIM-1; assay type: cell-based
T4 construct: a major fraction of polarized human Th2 and Th1 cells do express TIM-1; endogenous in cells; host or cells: primary human CD4+ T cells from blood
T4 sequence (Q96D42 21-364): T1 sequence (Q96D42 21-364)

B1: mAb 2.70.2: monoclonal antibody 2.70 further subcloned and designated 2.70.2; SEQ ID NO: 50 and 52 in Table 1 (antibody)
heavy: QVQLVESGGGVVQPGRSLRLSCAASGFIFSRYGMHWVRQAPGKGLKWVAVIWYDGSNKLYADSVKGRFTISRDNSKNTLYLQMNSLRAEDTAVYYCARDYYDNSRHHWGFDYWGQGTLVTVSSASTKGPSVFPLAPCSRSTSESTAALGCLVKDYFPEPVTVSWNSGALTSGVHTFPAVLQSSGLYSLSSVVTVPSSSLGTKTYTCNVDHKPSNTKVDKRV[not shown - human IgG4 Fc]
light: DIVMTQTPLSLPVTPGEPASISCRSSRSLLDSDDGNTYLDWYLQKPGQSPQLLIYTLSYRASGVPDRFSGSGSGTDFTLKISRVEAEDVGVYYCMQRVEFPITFGQGTRLEIKRTVAAPSVFIFPPSDEQLKSGTASVVCLLNNFYPREAKVQWKVDNALQSGNSQESVTEQDSKDSTYSLSSTLTLSKADYEKHKVYACEVTHQGLSSPVTKSFNRGEC
In the case of B1, the “specific binding to TIM-1 antigen expressed on cells (FACS)” value [1] is reported as “specifically bound”, the “specific binding to TIM-1 antigen expressed on cells (FACS)” value [2] is reported as “specifically bound” and the “binding to antigen negative cells (FACS)” value (BT549 cells [3]) is reported as “but not”. For the same molecule, the BT549 cell death (BT549 cells [4]) was 0%, the “effect on growth / survival of BT549 cells” value (BT549 cells [5]) was “did not affect the survival” and the “Geometric mean of fluorescence intensity” value [6] was 27.8. The “Percent of activated T cells that express TIM-1” value (from here on “Percent”) ([7]; Day 0, +MMPI) was 1%, the “Percent” value ([7]; Day 0, −MMPI) was 1% and the “Percent” value ([7]; Day 1, +MMPI) was 10%. The “Percent” value ([7]; Day 1, −MMPI) was 8%, the “Percent” value ([7]; Day 2, +MMPI) was 14% and the “Percent” value ([7]; Day 2, −MMPI) was 10%. The “Percent” value ([7]; Day 4, +MMPI) was 10%, the “Percent” value ([7]; Day 4, −MMPI) was 5% and the “Percent” value ([7]; Day 5, +MMPI) was 19%. The “Percent” value ([7]; Day 5, −MMPI) was 13%.
